# Experimental data reported in the supplement of paper PMC8728848.
# This is one part of the list.
# B1: Epa6 (Candida glabrata), Q6DTM7_CANGB (protein)
# chain: MGSSHHHHHHSSGLVPRGSHMKDDYSSSLSNNNLGWTDPTEFPLGCSPNVTTPKNGLSMELYSYDYLKSGSNPCWDAAYLDPNYPRTGYKSHRLLAKVENVAGNINFYYHAPMGCTSLFDTLPQAYNYRTPLTMTNFTMLLYGYFKPKVTGYHTFTISADDLLFVNFGAGNAFDCCKRESSADDFGNYQAYAVWGSQTAKDDLTVHLDAGLYYPIRIFFNNRDNDGALSLTLKTESDPNPVIDFSDYFYSFDDTKDGCPGLVSYDTS
# Legend:
# Test in all cases: glycan array binding signal (z-score within array); higher = stronger binding
# Details in all cases: glycan notation: IUPAC condensed, linker removed
# Neu5Ac(a2-8)Neu5Ac = target: Neu5Ac(a2-8)Neu5Ac
# In short: (§1)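 Glycan array data came from 3228 arrays in the Consortium for Functional Glycomics database, and only arrays with an available protein sequence were kept. Glycan names were put into IUPAC-condensed notation, and columns mapping to the same glycan were averaged. The binding signal is a within-array Z-score, averaged across arrays of one protein sequence run at different concentrations or buffers and across linkers. A negative Z-score can be read as non-binding.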
# [1] = target: Neu5Ac(a2-8)Neu5Ac(a2-3)Gal(b1-3)GalNAc(b1-4)[Neu5Ac(a2-3)]Gal(b1-4)Glc
# In short: as §1
# [2] = target: Neu5Ac(a2-8)Neu5Ac(a2-3)Gal(b1-3)GalNAc(b1-4)[Neu5Ac(a2-8)Neu5Ac(a2-3)]Gal(b1-4)Glc
# In short: as §1
# [3] = target: Neu5Ac(a2-8)Neu5Ac(a2-3)Gal(b1-4)Glc
# In short: as §1
# [4] = target: Neu5Ac(a2-8)Neu5Ac(a2-3)Gal(b1-4)GlcNAc
# In short: as §1
# [5] = target: Neu5Ac(a2-8)Neu5Ac(a2-3)[Gal(b1-3)GalNAc(b1-4)]Gal(b1-4)Glc
# In short: as §1
# [6] = target: Neu5Ac(a2-8)Neu5Ac(a2-3)[GalNAc(b1-4)]Gal(b1-4)Glc
# In short: as §1
# [7] = target: Neu5Ac(a2-8)Neu5Ac(a2-8)Neu5Ac
# In short: as §1
# [8] = target: Neu5Ac(a2-8)Neu5Ac(a2-8)Neu5Ac(a2-3)Gal(b1-4)Glc
# In short: as §1
# [9] = target: Neu5Ac(a2-8)Neu5Ac(a2-8)Neu5Ac(a2-3)[Gal(b1-3)GalNAc(b1-4)]Gal(b1-4)Glc
# In short: as §1
# [10] = target: Neu5Ac(a2-8)Neu5Ac(a2-8)Neu5Ac(a2-3)[GalNAc(b1-4)]Gal(b1-4)Glc
# In short: as §1
# [11] = target: Neu5Ac(a2-8)Neu5Ac(a2-8)Neu5Ac(a2-8)Neu5Ac(a2-3)[GalNAc(b1-4)]Gal(b1-4)Glc
# In short: as §1
# [12] = target: Neu5Ac(a2-8)Neu5Gc(a2-3)Gal(b1-4)GlcNAc
# In short: as §1
# [13] = target: Neu5Ac(b2-6)Gal(b1-4)GlcNAc
# In short: as §1
# Neu5Ac(b2-6)GalNAc = target: Neu5Ac(b2-6)GalNAc
# In short: as §1
# [14] = target: Neu5Ac9Ac(a2-3)Gal(b1-3)GlcNAc
# In short: as §1
# [15] = target: Neu5Ac9Ac(a2-3)Gal(b1-4)GlcNAc
# In short: as §1
# [16] = target: Neu5Ac9Ac(a2-6)Gal(b1-4)GlcNAc
# In short: as §1
# [17] = target: Neu5Gc(a2-3)Gal(b1-3)GlcNAc
# In short: as §1
# [18] = target: Neu5Gc(a2-3)Gal(b1-3)[Fuc(a1-4)]GlcNAc
# In short: as §1
# Neu5Gc(a2-3)Gal(b1-4)Glc = target: Neu5Gc(a2-3)Gal(b1-4)Glc
# In short: as §1
# [19] = target: Neu5Gc(a2-3)Gal(b1-4)GlcNAc
# In short: as §1
# [20] = target: Neu5Gc(a2-3)Gal(b1-4)GlcNAc(b1-3)Gal(b1-4)GlcNAc(b1-2)Man(a1-3)[Neu5Gc(a2-3)Gal(b1-4)GlcNAc(b1-3)Gal(b1-4)GlcNAc(b1-2)Man(a1-6)]Man(b1-4)GlcNAc(b1-4)GlcNAc
# In short: as §1
# [21] = target: Neu5Gc(a2-3)Gal(b1-4)[Fuc(a1-3)]GlcNAc
# In short: as §1
# [22] = target: Neu5Gc(a2-6)Gal(b1-4)GlcNAc
# In short: as §1
# Neu5Gc(a2-6)GalNAc = target: Neu5Gc(a2-6)GalNAc
# In short: as §1
# [23] = target: Neu5Gc(a2-8)Neu5Ac(a2-3)Gal(b1-4)GlcNAc
# In short: as §1
# [24] = target: Neu5Gc(a2-8)Neu5Gc(a2-3)Gal(b1-4)GlcNAc
# In short: as §1
# [25] = target: Neu5Gc(a2-8)Neu5Gc(a2-3)Gal(b1-4)GlcNAc(b1-3)Gal(b1-4)GlcNAc
# In short: as §1
# [26] = target: Neu5Gc(a2-8)Neu5Gc(a2-6)Gal(b1-4)GlcNAc
# In short: as §1
# [27] = target: Neu5Gc(b2-6)Gal(b1-4)GlcNAc
# In short: as §1
binder,measurement,setting,value
B1,glycan array binding signal (z-score),Neu5Ac(a2-8)Neu5Ac,-0.308
same,glycan array binding signal (z-score),[1],-0.27
same,glycan array binding signal (z-score),[2],-0.191
same,glycan array binding signal (z-score),[3],-0.347
same,glycan array binding signal (z-score),[4],-0.334
same,glycan array binding signal (z-score),[5],1.19
same,glycan array binding signal (z-score),[6],-0.332
same,glycan array binding signal (z-score),[7],-0.301
same,glycan array binding signal (z-score),[8],-0.321
same,glycan array binding signal (z-score),[9],-0.146
same,glycan array binding signal (z-score),[10],-0.341
same,glycan array binding signal (z-score),[11],-0.322
same,glycan array binding signal (z-score),[12],-0.299
same,glycan array binding signal (z-score),[13],-0.25
same,glycan array binding signal (z-score),Neu5Ac(b2-6)GalNAc,-0.317
same,glycan array binding signal (z-score),[14],-0.319
same,glycan array binding signal (z-score),[15],-0.331
same,glycan array binding signal (z-score),[16],-0.307
same,glycan array binding signal (z-score),[17],-0.296
same,glycan array binding signal (z-score),[18],-0.331
same,glycan array binding signal (z-score),Neu5Gc(a2-3)Gal(b1-4)Glc,-0.321
same,glycan array binding signal (z-score),[19],-0.323
same,glycan array binding signal (z-score),[20],-0.311
same,glycan array binding signal (z-score),[21],-0.284
same,glycan array binding signal (z-score),[22],-0.302
same,glycan array binding signal (z-score),Neu5Gc(a2-6)GalNAc,-0.311
same,glycan array binding signal (z-score),[23],-0.258
same,glycan array binding signal (z-score),[24],-0.336
same,glycan array binding signal (z-score),[25],-0.28
same,glycan array binding signal (z-score),[26],-0.285
same,glycan array binding signal (z-score),[27],-0.181
